# According to the supplement of paper PMC4604168 (melanoma cell lines):
# The other results are listed elsewhere or left out. Repeats are few or missing, and single values can be far off.
# Tested on: 501Mel
# Assay: cell count relative to DMSO control; melanoma cells; higher = more viable cells
# Settings: library dose: low library concentration; 72 h
# 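Also: cell number obtained by counting DAPI-stained nuclei in high-throughput microscope images with image analysis software, screen run in 1,536-well plates.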
row,Structure (SMILES),cell count
1,"CS(=O)(=O)CCNCc1ccc(-c2ccc3ncnc(Nc4ccc(OCc5cccc(F)c5)c(Cl)c4)c3c2)o1 [lapatinib] + Cc1cc(SCc2sc(-c3ccc(C(F)(F)F)c(F)c3)nc2C)ccc1OCC(=O)O [GW0742] (first compound 0.8 µM, partner dose 2 µM)",91.5%
2,"NC1(c2ccc(-c3nc4ccn5c(=O)[nH]nc5c4cc3-c3ccccc3)cc2)CCC1 + C/C(O)=C(\C#N)C(=O)Nc1cc(Br)ccc1Br [LFM-A13] (first compound 0.4 µM, partner dose 2 µM)",94.2%
3,"CC(=O)c1c(C)c2cnc(Nc3ccc(N4CCNCC4)cn3)nc2n(C2CCCC2)c1=O [palbociclib] + O=C(Oc1ccc([N+](=O)[O-])cc1)N1CCC(C(O)(c2ccc3c(c2)OCO3)c2ccc3c(c2)OCO3)CC1 [JZL184] (first compound 0.04 µM, partner dose 1 µM)",52.7%

# Tested on: A101D
# Assay: as above
# Settings: library dose: low library concentration; 72 h
row,Structure (SMILES),cell count
1,"COc1ccc(C2=N[C@@H](c3ccc(Cl)cc3)[C@@H](c3ccc(Cl)cc3)N2C(=O)N2CCNC(=O)C2)c(OC(C)C)c1 [Nutlin-3] + C/C(O)=C(\C#N)C(=O)Nc1cc(Br)ccc1Br [LFM-A13] (first compound 0.1 µM, partner dose 2 µM)",87.4%
2,"CCCCCCCCCCCCCCCCCCOP(=O)([O-])OC1CC[N+](C)(C)CC1 [Perifosine] + O=C(Oc1ccc([N+](=O)[O-])cc1)N1CCC(C(O)(c2ccc3c(c2)OCO3)c2ccc3c(c2)OCO3)CC1 [JZL184] (first compound 0.4 µM, partner dose 1 µM)",116%
3,"CCN(CC)CCNC(=O)c1c(C)[nH]c(/C=C2\C(=O)Nc3ccc(F)cc32)c1C [sunitinib] + Cc1cc(SCc2sc(-c3ccc(C(F)(F)F)c(F)c3)nc2C)ccc1OCC(=O)O [GW0742] (first compound 0.4 µM, partner dose 2 µM)",94.2%
4,"Nc1nc(F)nc2c1ncn2[C@@H]1O[C@H](CO)[C@@H](O)[C@@H]1O [fludarabine] + C/C(O)=C(\C#N)C(=O)Nc1cc(Br)ccc1Br [LFM-A13] (first compound 0.2 µM, partner dose 2 µM)",103%
5,"Cc1cc(Nc2cc(N3CCN(C)CC3)nc(/C=C/c3ccccc3)n2)n[nH]1 + C/C(O)=C(\C#N)C(=O)Nc1cc(Br)ccc1Br [LFM-A13] (first compound 0.04 µM, partner dose 2 µM)",93.2%
6,"NC1(c2ccc(-c3nc4ccn5c(=O)[nH]nc5c4cc3-c3ccccc3)cc2)CCC1 + Cc1cc(SCc2sc(-c3ccc(C(F)(F)F)c(F)c3)nc2C)ccc1OCC(=O)O [GW0742] (first compound 0.4 µM, partner dose 2 µM)",93.5%
7,"Nc1ncn([C@H]2C[C@H](O)[C@@H](CO)O2)c(=O)n1 [decitabine] + C/C(O)=C(\C#N)C(=O)Nc1cc(Br)ccc1Br [LFM-A13] (first compound 0.1 µM, partner dose 2 µM)",93.2%
8,"CCCCCCCCc1ccc(CCC(N)(CO)CO)cc1 [fingolimod] + C/C(O)=C(\C#N)C(=O)Nc1cc(Br)ccc1Br [LFM-A13] (first compound 2 µM, partner dose 2 µM)",99.8%
9,"CC[C@]1(O)C[C@H]2CN(CCc3c([nH]c4ccccc34)[C@@](C(=O)OC)(c3cc4c(cc3OC)N(C=O)[C@H]3[C@@](O)(C(=O)OC)[C@H](OC(C)=O)[C@]5(CC)C=CCN6CC[C@]43[C@@H]65)C2)C1 [vincristine] + Cc1cc(SCc2sc(-c3ccc(C(F)(F)F)c(F)c3)nc2C)ccc1OCC(=O)O [GW0742] (first compound 0.0001 µM, partner dose 2 µM)",86.1%
10,"Cc1ccc(Nc2nccc(N(C)c3ccc4c(C)n(C)nc4c3)n2)cc1S(N)(=O)=O [Pazopanib] + C/C(O)=C(\C#N)C(=O)Nc1cc(Br)ccc1Br [LFM-A13] (first compound 0.4 µM, partner dose 2 µM)",101%
11,"COc1cc([C@@H]2c3cc4c(cc3[C@@H](O[C@@H]3O[C@@H]5CO[C@@H](C)O[C@H]5[C@H](O)[C@H]3O)[C@H]3COC(=O)[C@H]23)OCO4)cc(OC)c1O [etoposide] + Cc1cc(SCc2sc(-c3ccc(C(F)(F)F)c(F)c3)nc2C)ccc1OCC(=O)O [GW0742] (first compound 0.02 µM, partner dose 2 µM)",108%
12,"Cc1cc(Nc2cc(N3CCN(C)CC3)nc(/C=C/c3ccccc3)n2)n[nH]1 + Cc1cc(SCc2sc(-c3ccc(C(F)(F)F)c(F)c3)nc2C)ccc1OCC(=O)O [GW0742] (first compound 0.04 µM, partner dose 2 µM)",102%
13,"Cn1cnc2c(F)c(Nc3ccc(Br)cc3Cl)c(C(=O)NOCCO)cc21 [selumetinib] + C/C(O)=C(\C#N)C(=O)Nc1cc(Br)ccc1Br [LFM-A13] (first compound 0.015 µM, partner dose 2 µM)",90.8%
14,"NC(=O)c1ccc(N(C(N)=O)c2c(F)cccc2F)nc1-c1ccc(F)cc1F + C/C(O)=C(\C#N)C(=O)Nc1cc(Br)ccc1Br [LFM-A13] (first compound 0.4 µM, partner dose 2 µM)",102%
15,"O=C(O)[C@@H]1[O][Sb](=[O])([O][Sb]2(=[O])[O][C@H]([C@H](O)CO)[C@H](O)[C@H](C(=O)O)[O]2)[O][C@H]([C@H](O)CO)[C@@H]1O (some centres undefined) [stibogluconate] + O=C(Oc1ccc([N+](=O)[O-])cc1)N1CCC(C(O)(c2ccc3c(c2)OCO3)c2ccc3c(c2)OCO3)CC1 [JZL184] (first compound 2 µM, partner dose 1 µM)",86.7%
16,"Cc1ccc(Nc2nccc(N(C)c3ccc4c(C)n(C)nc4c3)n2)cc1S(N)(=O)=O [Pazopanib] + O=C(Oc1ccc([N+](=O)[O-])cc1)N1CCC(C(O)(c2ccc3c(c2)OCO3)c2ccc3c(c2)OCO3)CC1 [JZL184] (first compound 0.4 µM, partner dose 1 µM)",85.4%
17,"CNC(=O)c1cc(Oc2ccc(NC(=O)Nc3ccc(Cl)c(C(F)(F)F)c3)cc2)ccn1 [sorafenib] + O=C(Oc1ccc([N+](=O)[O-])cc1)N1CCC(C(O)(c2ccc3c(c2)OCO3)c2ccc3c(c2)OCO3)CC1 [JZL184] (first compound 0.4 µM, partner dose 1 µM)",104%
18,"CNC(=O)c1cc(Oc2ccc(NC(=O)Nc3ccc(Cl)c(C(F)(F)F)c3)cc2)ccn1 [sorafenib] + C/C(O)=C(\C#N)C(=O)Nc1cc(Br)ccc1Br [LFM-A13] (first compound 0.4 µM, partner dose 2 µM)",89.5%
19,"CCCS(=O)(=O)Nc1ccc(F)c(C(=O)c2c[nH]c3ncc(Cl)cc23)c1F + O=C(Oc1ccc([N+](=O)[O-])cc1)N1CCC(C(O)(c2ccc3c(c2)OCO3)c2ccc3c(c2)OCO3)CC1 [JZL184] (first compound 0.08 µM, partner dose 1 µM)",84.5%
20,"CCCCCCCCc1ccc(CCC(N)(CO)CO)cc1 [fingolimod] + O=C(Oc1ccc([N+](=O)[O-])cc1)N1CCC(C(O)(c2ccc3c(c2)OCO3)c2ccc3c(c2)OCO3)CC1 [JZL184] (first compound 2 µM, partner dose 1 µM)",91.8%
21,"Cc1cn(-c2cc(NC(=O)c3ccc(C)c(Nc4nccc(-c5cccnc5)n4)c3)cc(C(F)(F)F)c2)cn1 [nilotinib] + O=C(Oc1ccc([N+](=O)[O-])cc1)N1CCC(C(O)(c2ccc3c(c2)OCO3)c2ccc3c(c2)OCO3)CC1 [JZL184] (first compound 0.2 µM, partner dose 1 µM)",89.4%
22,"CN(c1ncccc1CNc1nc(Nc2ccc3c(c2)CC(=O)N3)ncc1C(F)(F)F)S(C)(=O)=O + Cc1cc(SCc2sc(-c3ccc(C(F)(F)F)c(F)c3)nc2C)ccc1OCC(=O)O [GW0742] (first compound 0.08 µM, partner dose 2 µM)",81.8%
23,"C[C@@H](Oc1cc(-c2cnn(C3CCNCC3)c2)cnc1N)c1c(Cl)ccc(F)c1Cl [Crizotinib] + Cc1cc(SCc2sc(-c3ccc(C(F)(F)F)c(F)c3)nc2C)ccc1OCC(=O)O [GW0742] (first compound 0.2 µM, partner dose 2 µM)",93.9%
24,"O=c1[nH]nc(Sc2ncc([N+](=O)[O-])s2)n1-c1ccc2c(c1)OCCO2 + Cc1cc(SCc2sc(-c3ccc(C(F)(F)F)c(F)c3)nc2C)ccc1OCC(=O)O [GW0742] (first compound 0.2 µM, partner dose 2 µM)",108%
25,"CC[C@]1(O)C[C@H]2CN(CCc3c([nH]c4ccccc34)[C@@](C(=O)OC)(c3cc4c(cc3OC)N(C=O)[C@H]3[C@@](O)(C(=O)OC)[C@H](OC(C)=O)[C@]5(CC)C=CCN6CC[C@]43[C@@H]65)C2)C1 [vincristine] + O=C(Oc1ccc([N+](=O)[O-])cc1)N1CCC(C(O)(c2ccc3c(c2)OCO3)c2ccc3c(c2)OCO3)CC1 [JZL184] (first compound 0.0001 µM, partner dose 1 µM)",68.5%
26,"CC(=O)c1c(C)c2cnc(Nc3ccc(N4CCNCC4)cn3)nc2n(C2CCCC2)c1=O [palbociclib] + C/C(O)=C(\C#N)C(=O)Nc1cc(Br)ccc1Br [LFM-A13] (first compound 0.04 µM, partner dose 2 µM)",73.6%
